In the RNAGym collection of RNA variant scans (doi:10.1093/nar/gkz1192):
Read counts are not given, so values of variants with three or more changes are uncertain.

B1: CPEB3 Ribozyme (parent)
chain: UAACAGGGGGCCACAGCAGAAGCGUUCACGUCGCAGCCCCUGUCAGAUUCUGGUGAAUCUGCGAAUUCUGCUGUAUAUCUC

Variants of: B1
Assay: self-cleavage, relative activity (ratio to wild type); higher = more cleavage; in vitro, sequencing
How it was run: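 Relative activity was defined as the cleaved/total read fraction for a variant divided by the same fraction for the unmutated ribozyme. CPEB3 self-cleaving ribozyme libraries were made by rounds of error-prone PCR, barcoded, and transcribed in vitro with T7 RNA polymerase for 5 hours at 37°C, and cleavage ran through transcription plus a 15 min DNase I step before EDTA. Illumina sequencing of template-switched reverse transcripts gave the reads, and DNA sequencing mapped the barcodes. Averages come from three batches, using variants with at least 5 reads.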

Variant	self-cleavage
A3G A45U U78C U80A	0.54
A3G A20U A56C G63A U67A	0.66
A3G A35G U43A	1.19
A3G A21G U51A G52U U60A	0.65
A3G A35U U78A	0.8
A3G A21G A45C U78C U80A	0.46
A3G A28U U41A C59U U72A	0.09
A3G A21G U31A A56G A64G	0.14
A3G A21G A45G U66C	0.68
A3G A47G A56U A64U	0.31
A3G A35C C38G U66C U78C	0.45
A3G A20G U51G A65G U80C	0.09
A3G A21G U54G U60C U67A	0.11
A3G A28U U48A U51A	0.17
A3G A35G U41A U67A	0.09
A3G A35G U41C A56G	1.22
A3G A47G U67C U72C U76C	0.23
A3G A35G G36C U80C	0.29
A3G A35U U66C U67C	0.44
A3G A47G U51A A56U A77G	0.28
A3G A20U U51G U54C U67C	0.35
A3G A45U U51A	0.57
A3G A35U A47G U66G U72C U74A U78A	0.12
A3G A21G U51G U78C	0.69

Variant	self-cleavage
A3G A35G G36A U51A A65U U80A	0.16
A3G A35G U60C U69C	0.58
A3G A20G U26C A35U C39U G55C	0.01
A3G A20U U51A	0.55
A3G A21G G42A A56U U72C	0.36
A3G A28G C38U U72A	0.34
A3G A35G C40U	1.22
A3G A35U U49C A57G	0.18
A3G A45G U58A U67C	0.13
A3G A35G A57G	1.23
A3G A21U C59A	0.09
A3G A35G U41A U49C	0.44
A3G A35U U78C U80A	0.5
A3G A28G U43G U54C C62A	0
A3G A45G U78C	0.61
A3G A35G C38U	1.22
A3G A35G U43G A64G U69C U72A	0
A3G A21G U26C A35G A75G	0.77
A3G A35G A56U U69A U78C U80A	1.11
A3G A45G A47G U51A A56G A57G A75G	0.3
A3G A47G U48C U51C U76C U78C	0.29
A3G A21G U48C U76C	0.6
A3G A47G A64U C68A	0.14
A3G A21G U48C U72A	0.09

Variant	self-cleavage
A3G A35U U41C A45U U80C	0.23
A3G A28G A47G U49C U54A C71A	0.08
A3G A47G U49C U69G	0.24
A3G A47G U49C A57C	0.71
A3G A20U C32U A35G A57G U78C U80G	0.18
A3G A35G U48C U54A U69A	0.8
A3G A28G U67C C68A U80C	0.12
A3G A20U U43A A64G	0.15
A3G A21G A28G C71U A75G	0.06
A3G A45G U49C U60C G70A U78C	0.24
A3G A47G U69C U80C	0.24
A3G A47G U67C U72C	0.35
A3G A20U C32U U69C	0.09
A3G A45G U51C A56C A75G	0.21
A3G A21G A28G U41G	0.57
A3G A28G A75G	0.61
A3G A20G U25C U76C	0.13
A3G A21G U25C A35G	0.62
A3G A21G U26C	0.68
A3G A45G U51C U66C A75U	0.26
A3G A20G U31C U54A A77U U80A	0.61
A3G A28U U48C A57U U80A	0.2
A3G A28G C29G A45G U66C U67G	0.08
A3G A28G A45G U49C U58C C62G	0.08

Variant	self-cleavage
A3G A35G C50A	1.33
A3G A20U A28G A45U U60A A77U	0.08
A3G A21G U31C U41A G53U	0.23
A3G A20G U48C U49A U54C U58C	0.16
A3G A21G U43C	0.42
A3G A35G U48C U72C	1.12
A3G A21G G24U A28U C40U A45U U51C	0.08
A3G A21G C38U A45G U72A	0.14
A3G A47G A64G	0.61
A3G A28G A56G U67A	0.42
A3G A21G A28G U54C C71G	0.13
A3G A45G U60A	0.4
A3G A28G U51A U67C	0.45
A3G A28G U48C U66G	0.1
A3G A20G U26A U54C U66A A75G	0.41
A3G A35U A45G U69C	0.14
A3G A21G U54A U74A A75U	1.4
A3G A28U U51A U58C U60C U78C	0.22
A3G A35G U49C U60G A64U	0.2
A3G A20U U41A U54C A75G U78G	0.08
A3G A45C U48C U66C	0.23
A3G A20G U31C U41C A57G	0.44
A3G A20G U69C G70C C79A	0.49
A3G A28C U43C A47G	0.24

Variant	self-cleavage
A3G A28U U58A C68U	0.24
A3G A20G U26C C44A A65G	0.44
A3G A21G C40G U41C U48C	0.44
A3G A35G A47U	1.18
A3G A21G U41A U72C U76C U78C	0.15
A3G A20U A47G U72A	0.16
A3G A35U U69C	0.37
A3G A28G C50U U80C	0.63
A3G A35U A47G A64U C71U U72A A75U	0.14
A3G A20G U31C	0.76
A3G A20G U80C	0.95
A3G A21G U41G U43G U60C	0.06
A3G A21G G24A U26C U49G A64G U76A	0.07
A3G A20G U41C U43C U60C	0.37
A3G A21G U58C	0.39
A3G A20G U49C	0.33
A3G A21G C38U U58C	0.34
A3G A28U A64G U67C U80C	0.16
A3G A20U A28U A64G U74G	0.4
A3G A20G U43C U67A C71U	0.08
A3G A21G U51C U60C C68A U76C	0.19
A3G A28G U58G U74A U78G	0.1
A3G A45G U72C	1.07
A3G A35U U51A U80C	0.68

Variant	self-cleavage
A3G A28G A45U U51C U72C	0.68
A3G A35G U51A U54C U58C	1.2
A3G A21G U67C	0.45
A3G A28G U78A	0.79
A3G A20G U31A U67G C79A	0.38
A3G A21G U25A A45C G63A	0.06
A3G A20U U51A A65G U67A C68G	0.11
A3G A20U U49C U66C U78C	0.25
A3G A20G U48C A56G	0.58
A3G A35G U67C U80A	1.03
A3G A45U U72A	0.23
A3G A28G U51C	0.44
A3G A21G U31A U41C	0.52
A3G A20U C62G U76A	0.2
A3G A28G U31G U49C U74C	0.14
A3G A35C G55C	0.34
A3G A20U A64G	0.5
A3G A21G U60C	0.4
A3G A21U U31C	0.4
A3G A35G U43C U49C A56U U80C	0.31
A3G A47G A56U U80C	0.73
A3G A21G C39A U54A U66A U80A	0.05
A3G A35U C44U A64G U80C	0.1
A3G A21G U76C A77U	0.62

Variant	self-cleavage
A3G A28G U31C U66G	0.15
A3G A28G A35G U48C	0.81
A3G A35U G36A U54C	0.11
A3G A35G U51C A65G	1.08
A3G A45C U72A	0.55
A3G A47G U54A U72C	1.25
A3G A45U U66G A75G	0.24
A3G A20U U25A U51A G53A U74C	0.17
A3G A21G U66A	0.5
A3G A20G U26C U48C A56U	0.12
A3G A35U U41C U54C	0.45
A3G A45U A57G U67C	0.33
A3G A28G A47G	0.6
A3G A28C A45G A57G	0.44
A3G A28G U66G	0.5
A3G A47G U58C U66C	0.29
A3G A28G C38G U41C A56G	0.17
A3G A21G A45C U48C A65G U69A	0.22
A3G A20U U76A	0.43
A3G A47G U51A	1.05
A3G A28G U31C U41G A45U U80A	0.45
A3G A28G U43C U67G	0.45
A3G A35G U60C A64G A65G U66C	0.4
